Assay results taken from PMC4336329 (PLoS ONE, 2015).
Hit rate of the full screen: of about 310,000 compounds, about 14,000 (4.5%) showed an effect of 50% or more. Effects have a minus sign here. This is one part of the list.

The compounds below were run against human ether-à-go-go-related gene (hERG) potassium channel (human, UniProt Q12809) (assay: primary screen, population patch clamp on CHO cells stably expressing hERG).
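Further: peak tail current of the secondary pulse compared with the same well before compound.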

Chain of human ether-à-go-go-related gene (hERG) potassium channel (Q12809 whole entry, looked up): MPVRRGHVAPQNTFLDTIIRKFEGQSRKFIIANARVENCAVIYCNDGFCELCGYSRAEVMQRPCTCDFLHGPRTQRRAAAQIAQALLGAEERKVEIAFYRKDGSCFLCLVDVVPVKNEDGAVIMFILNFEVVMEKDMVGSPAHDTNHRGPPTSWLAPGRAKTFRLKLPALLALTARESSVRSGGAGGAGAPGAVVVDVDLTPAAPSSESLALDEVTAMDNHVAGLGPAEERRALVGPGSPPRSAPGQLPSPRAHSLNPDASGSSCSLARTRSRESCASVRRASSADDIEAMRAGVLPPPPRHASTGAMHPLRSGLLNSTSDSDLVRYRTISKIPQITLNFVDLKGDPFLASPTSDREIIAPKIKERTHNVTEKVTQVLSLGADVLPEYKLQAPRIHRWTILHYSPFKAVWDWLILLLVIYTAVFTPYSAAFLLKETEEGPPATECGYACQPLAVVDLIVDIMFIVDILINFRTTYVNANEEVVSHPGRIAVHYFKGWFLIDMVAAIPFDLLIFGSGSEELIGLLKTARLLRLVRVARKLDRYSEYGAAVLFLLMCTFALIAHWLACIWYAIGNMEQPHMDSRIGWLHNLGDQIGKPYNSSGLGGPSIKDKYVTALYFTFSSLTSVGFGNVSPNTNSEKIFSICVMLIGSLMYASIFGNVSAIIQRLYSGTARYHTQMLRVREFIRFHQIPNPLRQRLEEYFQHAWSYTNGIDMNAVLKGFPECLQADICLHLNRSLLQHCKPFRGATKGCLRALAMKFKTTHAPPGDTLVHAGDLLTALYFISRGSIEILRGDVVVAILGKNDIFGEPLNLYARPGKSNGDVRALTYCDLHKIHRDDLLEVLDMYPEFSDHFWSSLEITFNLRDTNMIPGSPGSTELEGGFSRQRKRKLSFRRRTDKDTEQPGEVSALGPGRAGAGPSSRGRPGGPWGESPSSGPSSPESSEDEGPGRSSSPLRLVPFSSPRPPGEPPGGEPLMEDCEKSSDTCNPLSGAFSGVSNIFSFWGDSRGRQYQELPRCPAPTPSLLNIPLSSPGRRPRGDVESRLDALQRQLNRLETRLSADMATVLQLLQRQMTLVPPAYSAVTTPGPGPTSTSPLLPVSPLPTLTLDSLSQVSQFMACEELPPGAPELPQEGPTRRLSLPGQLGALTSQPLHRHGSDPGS

| SMILES | hERG current change (%, negative = inhibition) at 10uM [%] |
| --- | --- |
| O=[N+]([O-])c1cc([N+](=O)[O-])c(Oc2cc(Cl)ccc2Cl)cc1NC1CCCCCCC1 | 26.5 |
| Cc1cc(Cl)ccc1OCc1nnc2n1CCCCC2 | -26.1 |
| Cc1ccccc1CCN(CC(=O)NC1CCCCC1)C(=O)c1csnn1 | 19.3 |
| CC(C)(C)c1ccc(NC(=O)CSc2nnc(-c3n[nH]c4ccccc34)o2)cc1 | -13.9 |
| CC(=O)Cn1ncc(N(C)Cc2ccccc2)c(Cl)c1=O | 8.18 |
| CC(C)n1ncc2c(C(=O)Nc3ccc(S(C)(=O)=O)cc3)cc(C3CC3)nc21 | 17 |
| CC(CCc1ccccc1)NC(=O)CN1CCN(c2ccc(O)cc2)CC1 (stereo not shown) | -37.1 |
| C=CCN(CC=C)CCCOc1ccc(C)cc1OC.O=C(O)C(=O)O | -45.1 |
| CC(=O)c1cccc(N(CC(=O)NCCc2ccccc2)C(=O)c2csnn2)c1 | -3.71 |
| O=C(CSc1nccc(=O)[nH]1)Nc1ccccc1Sc1ccccc1 | -4.69 |
| O=C(Nc1cccc(F)c1)c1ccc(Cn2cc([N+](=O)[O-])cn2)o1 | -47.8 |
| CC1(C)NC(=O)N(CCCCOc2ccc(Cl)cc2)C1=O | -20.8 |
| O=S(=O)(Cc1ccccc1)C1CCCCC1O (stereo not shown) | 13.2 |
| CCn1cc(C(=O)N2CCN(Cc3ccc4c(c3)OCO4)CC2)c2cc(OC)c(OC)cc2c1=O | -22.7 |
| Cc1cccc(C)c1N=C1NN=C(c2ccccc2F)CS1 | -8.23 |
| COc1ccccc1NC(=O)c1ccc2c(c1)N(CC(=O)NC(C)(C)C)C(=O)C(C)(C)O2 | 4.47 |
| Cc1c(Cl)cccc1N=C1SCCN1C(=O)CN1C(=O)NC2(CCCC2)C1=O | -16.5 |
| COc1cc(NC(=O)CS(=O)(=O)c2ccccc2)cc(OC)c1OC | 11.3 |
| Cc1ccccc1OCc1nnc2c3cnn(C)c3ncn12 | -5.21 |
| Cc1[nH]c2ccccc2c1/C=N/Nc1nc2ccccc2[nH]1 | 8.33 |
| O=C(CN1CCN(S(=O)(=O)c2ccc(Cl)s2)CC1)NCc1ccc(Cl)cc1 | -7.53 |
| CCc1c(O)nc(SCC(=O)Nc2nc3ccccc3s2)n(C2CCCCC2)c1=O | 0.434 |

| SMILES | hERG current change (%, negative = inhibition) at 10uM [%] |
| --- | --- |
| COCCn1c(=NC(=O)CCS(=O)(=O)c2ccccc2)sc2c(OC)ccc(OC)c21 | 5.38 |
| COc1ccc(N2CCN(S(=O)(=O)c3c(C)[nH]c(C)c3C(=O)N3CCCC3)CC2)cc1 | 7.12 |
| Cc1cc(C)c(C(=O)N2CCCC(CNS(=O)(=O)N(C)C)C2)o1 (stereo not shown) | 15.8 |
| O=C(Nc1cccc([N+](=O)[O-])c1)c1cnccn1 | -3.76 |
| CCCOc1cc(C)c(S(=O)(=O)n2ccc(C)n2)cc1C | -7.88 |
| Nc1ccc2oc(-c3cccc4ccccc34)nc2c1 | 8.92 |
| COC(=O)c1ccccc1NC(=O)CCCn1nc([N+](=O)[O-])cc1C | 4.63 |
| COC(=O)[C@@]1(Cc2ccc(F)cc2)[C@H]2c3cc(C(=O)N4CCCC4)n(Cc4ccc(C(F)(F)F)nc4)c3C[C@H]2CN1C(=O)c1ccccc1 | -8.27 |
| CC(C)(C)c1ccc(OCC(O)CN2CCN(c3ccccn3)CC2)cc1.Cl (stereo not shown) | -16 |
| COC(=O)c1sc(N)c(C(=O)OC)c1COC(=O)[C@@H](NS(=O)(=O)c1cccc(Cl)c1)C(C)C | -5.24 |
| CCOc1ccc(OCC)c(NC(=O)CN2CCN(c3cccc(C)c3C)CC2)c1.Cl | 2.35 |
| CC1CCN(C(=S)c2cn(Cc3cccc(F)c3)c3ccccc23)CC1 | 19.2 |
| CC(=O)N1N=C(c2ccncc2)OC1(Cc1ccccc1)Cc1ccccc1 | -48.6 |
| Cc1nc(C(=O)NNC(=O)c2ccc(Cl)cc2)cs1 | -12.5 |
| COc1ccc(CNC(=O)C(OC(=O)c2nsc(Cl)c2Cl)C(C)C)cc1 (stereo not shown) | -10.6 |
| CC(=O)c1ccc(NC(=O)CS(=O)(=O)c2cn(CC(=O)N3CCOCC3)c3ccccc23)cc1 | -58.6 |
| CN(C(=O)CN(c1ccccc1)S(=O)(=O)c1ccc(F)cc1)C1CCS(=O)(=O)C1 (stereo not shown) | -13.2 |
| CSc1ncccc1C(=O)Nc1ccc2c(c1)OCO2 | 11.4 |
| CCOn1c(SC(C)C)nc2ccccc2c1=O | -5.49 |
| CC(=O)C1=C(C)Nc2ncnn2C1c1ccc(Cl)cc1Cl (stereo not shown) | 2.23 |
| O=C1c2oc3ccc(F)cc3c(=O)c2C(c2ccc(F)cc2)N1CCCN1CCOCC1 (stereo not shown) | -30.1 |
